Results: the supplement of paper PMC4996465
Viability of KB3-1 and Nalm-6 cells after 48 h of drug alone (CellTiter-Glo), 11 doses over about 4.5 log units. % of DMSO wells, lower = more cell loss; AC50 from the fitted curve, lower = more potent. No active / inactive call. Nalm-6 was screened in two runs. AC50 is listed only for well-fitted inhibitory curves. KB3-1 is a HeLa-derived carcinoma line, Nalm-6 a B-cell precursor leukaemia line.

Legend:
Nalm-6 = test: viability (% of DMSO control); higher = more viable cells
Description: (§1)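 Eleven-dose screen of the NCATS MIPE 3 library on cells without co-treatment; CellTiter-Glo after 48 h, as % of DMSO wells.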

KB3-1 = test: as above
Description: as §1

## CC(C)(Sc1ccc(CCN(CCCCC2CCCCC2)C(=O)NC2CCCCC2)cc1)C(=O)O [GW-7647]
Nalm-6; run: 1, 0.00078 µM
  viability: 112%
Nalm-6; run: 1, 0.00234 µM
  viability: 115%
Nalm-6; run: 1, 0.00702 µM
  viability: 107%
Nalm-6; run: 1, 0.0211 µM
  viability: 120%
Nalm-6; run: 1, 0.0632 µM
  viability: 110%
Nalm-6; run: 1, 0.19 µM
  viability: 115%
Nalm-6; run: 1, 0.569 µM
  viability: 119%
Nalm-6; run: 1, 1.71 µM
  viability: 122%
Nalm-6; run: 1, 5.12 µM
  viability: 117%
Nalm-6; run: 1, 15.4 µM
  viability: 120%
Nalm-6; run: 1, 46.1 µM
  viability: 65.9%
Nalm-6; run: 2, 0.00078 µM
  viability: 102%
Nalm-6; run: 2, 0.00234 µM
  viability: 105%
Nalm-6; run: 2, 0.00702 µM
  viability: 110%
Nalm-6; run: 2, 0.0211 µM
  viability: 108%
Nalm-6; run: 2, 0.0632 µM
  viability: 99.5%
Nalm-6; run: 2, 0.19 µM
  viability: 104%
Nalm-6; run: 2, 0.569 µM
  viability: 112%
Nalm-6; run: 2, 1.71 µM
  viability: 106%
Nalm-6; run: 2, 5.12 µM
  viability: 106%
Nalm-6; run: 2, 15.4 µM
  viability: 101%
Nalm-6; run: 2, 46.1 µM
  viability: 55.1%
KB3-1; 0.00078 µM
  viability: 95.4%
KB3-1; 0.00234 µM
  viability: 97.9%
KB3-1; 0.00702 µM
  viability: 96.1%
KB3-1; 0.0211 µM
  viability: 103%
KB3-1; 0.0632 µM
  viability: 103%
KB3-1; 0.19 µM
  viability: 99.3%
KB3-1; 0.569 µM
  viability: 103%
KB3-1; 1.71 µM
  viability: 104%
KB3-1; 5.12 µM
  viability: 104%
KB3-1; 15.4 µM
  viability: 103%
KB3-1; 46.1 µM
  viability: 91.3%

## O=C(O)CCc1ccc(NCc2cccc(Oc3ccccc3)c2)cc1 [GW-9508]
Nalm-6; run: 1, 0.00078 µM
  viability: 116%
Nalm-6; run: 1, 0.00234 µM
  viability: 125%
Nalm-6; run: 1, 0.00702 µM
  viability: 124%
Nalm-6; run: 1, 0.0211 µM
  viability: 117%
Nalm-6; run: 1, 0.0632 µM
  viability: 121%
Nalm-6; run: 1, 0.19 µM
  viability: 115%
Nalm-6; run: 1, 0.569 µM
  viability: 118%
Nalm-6; run: 1, 1.71 µM
  viability: 115%
Nalm-6; run: 1, 5.12 µM
  viability: 116%
Nalm-6; run: 1, 15.4 µM
  viability: 115%
Nalm-6; run: 1, 46.1 µM
  viability: 92.8%
Nalm-6; run: 2, 0.00078 µM
  viability: 110%
Nalm-6; run: 2, 0.00234 µM
  viability: 106%
Nalm-6; run: 2, 0.00702 µM
  viability: 101%
Nalm-6; run: 2, 0.0211 µM
  viability: 104%
Nalm-6; run: 2, 0.0632 µM
  viability: 104%
Nalm-6; run: 2, 0.19 µM
  viability: 108%
Nalm-6; run: 2, 0.569 µM
  viability: 104%
Nalm-6; run: 2, 1.71 µM
  viability: 97.8%
Nalm-6; run: 2, 5.12 µM
  viability: 99%
Nalm-6; run: 2, 15.4 µM
  viability: 105%
Nalm-6; run: 2, 46.1 µM
  viability: 96%
KB3-1; 0.00078 µM
  viability: 106%
KB3-1; 0.00234 µM
  viability: 113%
KB3-1; 0.00702 µM
  viability: 104%
KB3-1; 0.0211 µM
  viability: 106%
KB3-1; 0.0632 µM
  viability: 106%
KB3-1; 0.19 µM
  viability: 105%
KB3-1; 0.569 µM
  viability: 112%
KB3-1; 1.71 µM
  viability: 107%
KB3-1; 5.12 µM
  viability: 102%
KB3-1; 15.4 µM
  viability: 96.8%
KB3-1; 46.1 µM
  viability: 94.8%

## O=C(/C=C/c1c(C(=O)[O-])[nH]c2cc(Cl)cc(Cl)c12)Nc1ccccc1 [Gavestinel sodium]
Nalm-6; run: 1, 0.00078 µM
  viability: 64.2%
Nalm-6; run: 1, 0.00234 µM
  viability: 80.9%
Nalm-6; run: 1, 0.00702 µM
  viability: 91.4%
Nalm-6; run: 1, 0.0211 µM
  viability: 96.1%
Nalm-6; run: 1, 0.0632 µM
  viability: 84.5%
Nalm-6; run: 1, 0.19 µM
  viability: 95%
Nalm-6; run: 1, 0.569 µM
  viability: 109%
Nalm-6; run: 1, 1.71 µM
  viability: 97.7%
Nalm-6; run: 1, 5.12 µM
  viability: 100%
Nalm-6; run: 1, 15.4 µM
  viability: 100%
Nalm-6; run: 1, 46.1 µM
  viability: 112%
Nalm-6; run: 2, 0.00078 µM
  viability: 102%
Nalm-6; run: 2, 0.00234 µM
  viability: 104%
Nalm-6; run: 2, 0.00702 µM
  viability: 103%
Nalm-6; run: 2, 0.0211 µM
  viability: 105%
Nalm-6; run: 2, 0.0632 µM
  viability: 109%
Nalm-6; run: 2, 0.19 µM
  viability: 104%
Nalm-6; run: 2, 0.569 µM
  viability: 104%
Nalm-6; run: 2, 1.71 µM
  viability: 100%
Nalm-6; run: 2, 5.12 µM
  viability: 106%
Nalm-6; run: 2, 15.4 µM
  viability: 114%
Nalm-6; run: 2, 46.1 µM
  viability: 109%
KB3-1; 0.00078 µM
  viability: 88.3%
KB3-1; 0.00234 µM
  viability: 90.6%
KB3-1; 0.00702 µM
  viability: 93.8%
KB3-1; 0.0211 µM
  viability: 90.8%
KB3-1; 0.0632 µM
  viability: 93%
KB3-1; 0.19 µM
  viability: 91.6%
KB3-1; 0.569 µM
  viability: 96%
KB3-1; 1.71 µM
  viability: 95%
KB3-1; 5.12 µM
  viability: 97.4%
KB3-1; 15.4 µM
  viability: 95.2%
KB3-1; 46.1 µM
  viability: 89%

## CCN(CCO)CCCC(C)Nc1ccnc2cc(Cl)ccc12.O=S(=O)(O)O (stereo not drawn) [Hydroxychloroquine sulfate]
Nalm-6; run: 1, 0.00078 µM
  viability: 105%
Nalm-6; run: 1, 0.00234 µM
  viability: 102%
Nalm-6; run: 1, 0.00702 µM
  viability: 101%
Nalm-6; run: 1, 0.0211 µM
  viability: 113%
Nalm-6; run: 1, 0.0632 µM
  viability: 110%
Nalm-6; run: 1, 0.19 µM
  viability: 124%
Nalm-6; run: 1, 0.569 µM
  viability: 108%
Nalm-6; run: 1, 1.71 µM
  viability: 114%
Nalm-6; run: 1, 5.12 µM
  viability: 111%
Nalm-6; run: 1, 15.4 µM
  viability: 101%
Nalm-6; run: 1, 46.1 µM
  viability: 96.1%
Nalm-6; run: 2, 0.00078 µM
  viability: 110%
Nalm-6; run: 2, 0.00234 µM
  viability: 103%
Nalm-6; run: 2, 0.00702 µM
  viability: 93.1%
Nalm-6; run: 2, 0.0211 µM
  viability: 105%
Nalm-6; run: 2, 0.0632 µM
  viability: 106%
Nalm-6; run: 2, 0.19 µM
  viability: 103%
Nalm-6; run: 2, 0.569 µM
  viability: 108%
Nalm-6; run: 2, 1.71 µM
  viability: 95.7%
Nalm-6; run: 2, 5.12 µM
  viability: 106%
Nalm-6; run: 2, 15.4 µM
  viability: 106%
Nalm-6; run: 2, 46.1 µM
  viability: 84.4%
KB3-1; 0.00078 µM
  viability: 102%
KB3-1; 0.00234 µM
  viability: 110%
KB3-1; 0.00702 µM
  viability: 98.7%
KB3-1; 0.0211 µM
  viability: 108%
KB3-1; 0.0632 µM
  viability: 103%
KB3-1; 0.19 µM
  viability: 107%
KB3-1; 0.569 µM
  viability: 104%
KB3-1; 1.71 µM
  viability: 107%
KB3-1; 5.12 µM
  viability: 109%
KB3-1; 15.4 µM
  viability: 106%
KB3-1; 46.1 µM
  viability: 106%

## NC(=O)c1ccc(I)c([N+](=O)[O-])c1 [Iniparib]
Nalm-6; run: 1, 0.00078 µM
  viability: 93.6%
Nalm-6; run: 1, 0.00234 µM
  viability: 84%
Nalm-6; run: 1, 0.00702 µM
  viability: 96.1%
Nalm-6; run: 1, 0.0211 µM
  viability: 102%
Nalm-6; run: 1, 0.0632 µM
  viability: 111%
Nalm-6; run: 1, 0.19 µM
  viability: 110%
Nalm-6; run: 1, 0.569 µM
  viability: 115%
Nalm-6; run: 1, 1.71 µM
  viability: 108%
Nalm-6; run: 1, 5.12 µM
  viability: 118%
Nalm-6; run: 1, 15.4 µM
  viability: 113%
Nalm-6; run: 1, 46.1 µM
  viability: 48.2%
Nalm-6; run: 2, 0.00078 µM
  viability: 111%
Nalm-6; run: 2, 0.00234 µM
  viability: 112%
Nalm-6; run: 2, 0.00702 µM
  viability: 110%
Nalm-6; run: 2, 0.0211 µM
  viability: 112%
Nalm-6; run: 2, 0.0632 µM
  viability: 108%
Nalm-6; run: 2, 0.19 µM
  viability: 113%
Nalm-6; run: 2, 0.569 µM
  viability: 113%
Nalm-6; run: 2, 1.71 µM
  viability: 108%
Nalm-6; run: 2, 5.12 µM
  viability: 108%
Nalm-6; run: 2, 15.4 µM
  viability: 101%
Nalm-6; run: 2, 46.1 µM
  viability: 5.01%
KB3-1; 0.00078 µM
  viability: 107%
KB3-1; 0.00234 µM
  viability: 104%
KB3-1; 0.00702 µM
  viability: 101%
KB3-1; 0.0211 µM
  viability: 106%
KB3-1; 0.0632 µM
  viability: 101%
KB3-1; 0.19 µM
  viability: 108%
KB3-1; 0.569 µM
  viability: 106%
KB3-1; 1.71 µM
  viability: 104%
KB3-1; 5.12 µM
  viability: 106%
KB3-1; 15.4 µM
  viability: 99.3%
KB3-1; 46.1 µM
  viability: 98.5%

## COc1cc2c(cc1OC)CC(=O)N(CCCN(C)C[C@H]1Cc3cc(OC)c(OC)cc31)CC2.Cl [Ivabradine hydrochloride]
Nalm-6; run: 1, 0.00078 µM
  viability: 82.5%
Nalm-6; run: 1, 0.00234 µM
  viability: 95.9%
Nalm-6; run: 1, 0.00702 µM
  viability: 106%
Nalm-6; run: 1, 0.0211 µM
  viability: 102%
Nalm-6; run: 1, 0.0632 µM
  viability: 98.7%
Nalm-6; run: 1, 0.19 µM
  viability: 99.9%
Nalm-6; run: 1, 0.569 µM
  viability: 95.1%
Nalm-6; run: 1, 1.71 µM
  viability: 106%
Nalm-6; run: 1, 5.12 µM
  viability: 100%
Nalm-6; run: 1, 15.4 µM
  viability: 91.7%
Nalm-6; run: 1, 46.1 µM
  viability: 91.4%
Nalm-6; run: 2, 0.00078 µM
  viability: 91.4%
Nalm-6; run: 2, 0.00234 µM
  viability: 101%
Nalm-6; run: 2, 0.00702 µM
  viability: 102%
Nalm-6; run: 2, 0.0211 µM
  viability: 93.7%
Nalm-6; run: 2, 0.0632 µM
  viability: 101%
Nalm-6; run: 2, 0.19 µM
  viability: 97.6%
Nalm-6; run: 2, 0.569 µM
  viability: 94%
Nalm-6; run: 2, 1.71 µM
  viability: 97.9%
Nalm-6; run: 2, 5.12 µM
  viability: 95.7%
Nalm-6; run: 2, 15.4 µM
  viability: 92.6%
Nalm-6; run: 2, 46.1 µM
  viability: 90.5%
KB3-1; 0.00078 µM
  viability: 104%
KB3-1; 0.00234 µM
  viability: 109%
KB3-1; 0.00702 µM
  viability: 106%
KB3-1; 0.0211 µM
  viability: 106%
KB3-1; 0.0632 µM
  viability: 109%
KB3-1; 0.19 µM
  viability: 99.7%
KB3-1; 0.569 µM
  viability: 101%
KB3-1; 1.71 µM
  viability: 105%
KB3-1; 5.12 µM
  viability: 101%
KB3-1; 15.4 µM
  viability: 103%
KB3-1; 46.1 µM
  viability: 101%
